The target of the experiment is T1, Myc-GRPR (Mus musculus, UniProt P21729).
T1 construct: expressed in transfected cells
The experiment can be described thus: Receptor internalization assay (ELISA, immunofluorescence staining) in HEK 293 cells: GRPR. The experiment is classed as cell-based.

Each structure is given as a SMILES string.

T1 sequence (P21729 whole entry): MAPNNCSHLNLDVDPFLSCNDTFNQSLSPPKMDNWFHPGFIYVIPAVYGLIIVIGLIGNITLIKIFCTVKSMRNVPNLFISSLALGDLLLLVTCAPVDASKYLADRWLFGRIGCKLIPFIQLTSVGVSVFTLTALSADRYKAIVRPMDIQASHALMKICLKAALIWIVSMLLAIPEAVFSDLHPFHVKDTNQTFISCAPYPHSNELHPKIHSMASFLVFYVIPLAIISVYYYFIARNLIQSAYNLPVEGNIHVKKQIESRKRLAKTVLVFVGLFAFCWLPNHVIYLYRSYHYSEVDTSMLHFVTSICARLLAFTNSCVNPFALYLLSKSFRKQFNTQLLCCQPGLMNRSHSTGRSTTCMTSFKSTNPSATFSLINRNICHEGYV

In the case of `C=CCN1CC[C@]23c4c5ccc(O)c4O[C@H]2C(=O)CC[C@@]3(O)[C@H]1C5` [naloxone], the “effect on morphine-induced GRPR internalization” value reads like this: (HEK 293 cells co-expressing MOR1D and GRPR) “inhibited morphine-induced GRPR or MOR1D internalization in a dose-dependent manner”; (HEK 293 cells co-expressing MOR1D and GRPR, listed as Naloxone) “dose-dependently blocked”; (naloxone 10 μM, cells co-expressing MOR1D and GRPR) “nearly abolish”.
Turning to `C[C@@H](NC(=O)[C@@H](N)Cc1ccc(O)cc1)C(=O)NCC(=O)N(C)[C@@H](Cc1ccccc1)C(=O)NCCO` [DAMGO], the “agonist-induced GRPR internalization” value (HEK 293 cells co-expressing MOR1D and GRPR, agonist 1 μM, 30 min) was “can be internalized by DAMGO when co-expressed with MOR1D”.
